Test results reported in patent US20260062452A1 (CYTIVA BIOPROCESS R AND D, published 2026).

Each binder was assayed against T1, trastuzumab Fab fragment (assay: SPR, polypeptide on CM5 chip, trastuzumab Fab as analyte).
T1 construct: also called Fab (VH-3); VH3/Fab

Row | Binder | binding result
1 | IgG binding polypeptide SEQ ID NO:186 (Group 1, before mutations) (designed binder) IAAQHDKDQQAAFYEILHLPNLTEEQRNAFIQSLRDDPSVSLEILAEAKKLNDAQAPK | no binding (tested: 500 nM)
2 | IgG binding polypeptide SEQ ID NO:187 (Group 1, before mutations) (designed binder) IAAQHDKEHQAAFYEILHLPNLTEDQRNAFIQSLRDDPSVSLEILGEAKKLNDAQAPK | no binding (tested: 500 nM)
3 | IgG binding polypeptide SEQ ID NO:188 (Group 1, before mutations) (designed binder) IAAQHDKDQQAAFYEILHLPNLTEEQRNAFIQSLRHDPSVSLEILAEAKKLNDAQAPK | no binding (tested: 500 nM)
4 | IgG binding polypeptide SEQ ID NO:190 (Group 1, before mutations) (designed binder) ADSKFDEAQQSAFYEILHLPSLTEDQRAAFIQSLKDDPSTSKSLLGEAKKLNDAQAPP | no binding (tested: 500 nM)
5 | IgG binding polypeptide SEQ ID NO:192 (Group 1, before mutations) (designed binder) VDAKFNKEQQNAFYEILNLPNLTEEQRNAFIQSLRDDPSQSANLLSEAKRLNESQAPG | no binding (tested: 500 nM)
6 | SEQ ID NO:203 (Group 2 Fc knock-out variant of SEQ ID NO:188) (designed binder) IAAQHDKDAYRALAEIARLPNLTEEQRAGFIQSLRHDPSVSLEILAEAKKLNDAQAPK | no binding (tested: 500 nM)
7 | SEQ ID NO:216 (Group 3 Fc knock-out variant of SEQ ID NO:188) (designed binder) IAAQHDKDAYRALAEIARLPNLTEESRAGFIQSLRHDPSVSLEILAEAKKLNDAQAPK | no binding (tested: 500 nM)
8 | SEQ ID NO:204 (Group 2 Fc knock-out variant of SEQ ID NO:189) (designed binder) ADNKFNKEAYRALAEIARLPNLTEEQRAGFIQSLRDEPSVSKEILAEAKKLNDAQAPK | no binding (tested: 500 nM)
9 | SEQ ID NO:217 (Group 3 Fc knock-out variant of SEQ ID NO:189) (designed binder) ADNKFNKEAYRALAEIARLPNLTEESRAGFIQSLRDEPSVSKEILAEAKKLNDAQAPK | no binding (tested: 500 nM)
10 | SEQ ID NO:205 (Group 2 Fc knock-out variant of SEQ ID NO:190) (designed binder) ADSKFDEAAYRALAEIARLPSLTEDQRAGFIQSLKDDPSTSKSLLGEAKKLNDAQAPP | no binding (tested: 500 nM)
11 | SEQ ID NO:218 (Group 3 Fc knock-out variant of SEQ ID NO:190) (designed binder) ADSKFDEAAYRALAEIARLPSLTEDSRAGFIQSLKDDPSTSKSLLGEAKKLNDAQAPP | no binding (tested: 500 nM)

Molecular target: T1, trastuzumab Fab fragment
Assay: as above
Remark: another data set of the same source

Row | Binder | binding result
12 | SEQ ID NO:208 (Group 2 Fc knock-out variant of SEQ ID NO:193) (designed binder) VDAKFNKEAYRALAEIARLPNLTEEQRAGFIQSLRDDPSTSKSILKEAKKLNKAQAPK | no binding
